In patent US20050203119A1, “Dihydropyridine compounds for treating or preventing metabolic disorders” (priority 2003, published 2005):
For some of these results: The name of at least one read-out is uncertain. Marks after values point to notes of the source that are not given here. For some of these results: For at least one compound, name, drawing or mass did not settle the structure.

Test system: C57BLKS/J db/db male mice
Experiment: Glucose reduction, Compound 1 in combination with rosiglitazone, db/db mice (Example 116, FIG. 2)
Format: in vivo, mouse
Details: rosiglitazone alone, 1 mg/kg

Structure (SMILES)	blood glucose level, monotherapy
CN(CCOc1ccc(CC2SC(=O)NC2=O)cc1)c1ccccn1 (stereo not shown) [rosiglitazone, reference compound]	reduced glucose levels

Test system: male db/db mice (BKS.Cg-m+/+Lepr db/J)
Experiment: Intraperitoneal glucose tolerance test (IPGTT) in db/db mice (Example 122, FIGS. 3 and 5)
Format: in vivo, mouse
Details: oral dose 1X (relative to 50 mg/kg Compound 39) at -3 hr, vs vehicle (Formula 2)

Structure (SMILES)	Ave. % Change in Glucose Intolerance at +45 min
COc1ccccc1C1C(C#N)=C(COCCN)NC2=C1C(=O)CC(C)(C)C2 (stereo not shown) [Compound 204, 2-(2-Amino-ethyoxymethyl)-7,7-dimethyl-4-(2-methoxyphenyl)-5-oxo-1,4,5,6,7,8-hexahydro-quinoline-3-carbonitrile]	−18.1** %
CCOC(=O)C1=C(COCCN)NC2=C(C(=O)CC(C)(C)C2)C1c1ccc(C)o1 (stereo not shown) [Compound 206, 2-(2-Amino-ethoxymethyl)-7,7-dimethyl-4-(5-methyl-furan-2-yl)-5-oxo-1,4,5,6,7,8-hexahydro-quinoline-3-carboxylic acid ethyl ester]	−23.7%
CCCOCC1=C(C(=O)OCC)C(c2cccnc2)C2=C(CC(C)(C)CC2=O)N1 (stereo not shown) [Compound 207, 2-Propoxymethyl-7,7-dimethyl-4-(pyrid-3-yl)-5-oxo-1,4,5,6,7,8-hexahydro-quinoline-3-carboxylic acid ethyl ester]	−36.7%
CCOC(=O)C1=C(C)NC2=C(C(=O)CC(C)(C)C2)C1C (stereo not shown) [Compound 217, 2,4,7,7-Tetramethyl-5-oxo-1,4,5,6,7,8-hexahydro-quinoline-3-carboxylic acid ethyl ester]	−10.4%
CCOC(=O)C1=C(C)NC2=C(C(=O)CC(C)(C)C2)C1C1CCCCC1 (stereo not shown) [Compound 218, 2,7,7-Trimethyl-4-cyclohexyl-5-oxo-1,4,5,6,7,8-hexahydro-quinoline-3-carboxylic acid ethyl ester]	−4.0%
CCOC(=O)C1=C(C)NC2=C(C(=O)CC(C)(C)C2)C1C1CCCC1 (stereo not shown) [Compound 221, 2,7,7-Trimethyl-4-cyclopentyl-5-oxo-1,4,5,6,7,8-hexahydro-quinoline-3-carboxylic acid ethyl ester]	−26.0%
CC1=C(C#N)C(C2CC2)C2=C(CC(C)(C)CC2=O)N1 (stereo not shown) [Compound 222, 2,7,7-Trimethyl-4-cyclopropyl-5-oxo-1,4,5,6,7,8-hexahydro-quinoline-3-carbonitrile]	−33.1** %
CCOC(=O)C1=C(COCCN)NC2=C(C(=O)CC(C)(C)C2)C1C1CCCC1 (stereo not shown) [Compound 223, 2-(Amino-ethoxymethyl)-4-1,4,5,6,7,8-hexahydro-quinoline-3-carboxylic acid ethyl ester]	−19.9%
CCOC(=O)C1=C(C)NC2=C(C(=O)CC(C)(C)C2)C1C(C)(C)C (stereo not shown) [Compound 224, 2,7,7-Trimethyl-4-(t-butyl)-5-oxo-1,4,5,6,7,8-hexahydro-quinoline-3-carboxylic acid ethyl ester]	−8.3%
CCOC(=O)C1=C(C)NC2=C(C(=O)CC(C)(C)C2)C1C1(C)CC1 (stereo not shown) [Compound 225, 2,7,7-Trimethyl-4-(1-methyl-cyclopropyl)-5-oxo-1,4,5,6,7,8-hexahydro-quinoline-3-carboxylic acid ethyl ester]	−16.0%
CCOC(=O)C1=C(C)NC2=C(C(=O)CC3(CCCC3)C2)C1C1CC1 (stereo not shown) [Compound 226, 2-Methyl-4-cyclopropyl-5-oxo-spiro[1,4,5,6,7,8-hexahydro-quinoline-7,1′-cyclopentane]-3-carboxylic acid ethyl ester]	−12.8%
CCOC(=O)C1=C(CN2CCOCC2)NC2=C(C(=O)CC(C)(C)C2)C1C1CC1 (stereo not shown) [Compound 227, 2-(Morpholin-4-yl-methyl)-4-cyclopropyl-5-oxo-7,7-dimethyl-1,4,5,6,7,8-hexahydro-quinoline-3-carboxylic acid ethyl ester]	−9.2%
CC1(C)CC(=O)C2=C(C1)NC(CO)=C(C#N)C2C1CC1 (stereo not shown) [Compound 228, 2-(Hydroxymethyl)-4-cyclopropyl-5-oxo-7,7-dimethyl-1,4,5,6,7,8-hexahydro-quinoline-3-carbonitrile]	−19.9%
CCOC(=O)C1=C(COCCN2CCOCC2)NC2=C(C(=O)CC(C)(C)C2)C1C1CC1 (stereo not shown) [Compound 229, 2-[2-(Morpholin-4-yl)-ethoxymethyl]-4-cyclopropyl-5-oxo-7,7-dimethyl-1,4,5,6,7,8-hexahydro-quinoline-3-carboxylic acid ethyl ester]	−35.6%
CCOC(=O)C1=C(COCCN)NC2=C(C(=O)CC(C)(C)C2)C1C(F)(F)F (stereo not shown) [Compound 230, 2-(2-Amino-ethoxymethyl)-4-trifluoromethyl-5-oxo-7,7-dimethyl-1,4,5,6,7,8-hexahydro-quinoline-3-carboxylic acid ethyl ester]	−13.6%
